Assay results as given in PubChem BioAssay AID504333 (National Center for Advancing Translational Sciences (NCATS), 2011).
Hit rate of the full screen: of about 360,000 compounds, about 16,000 (4.4%) were called active. The shares of active, inactive and inconclusive entries below differ from those in the screen. Calls follow the shape of the dose curve; as a rule, active = well fitted inhibition curve with a large enough effect; inconclusive = small, poorly fitted or top-dose-only effect; inactive = no such curve, though single readings can be large or run the other way. Potencies beside an inconclusive call are fits to weak or partial responses and may not hold up.

These compounds were tested against Bromodomain adjacent to zinc finger domain protein 2B (Homo sapiens) (UniProt Q9UIF8) (assay: qHTS Assay for Inhibitors of BAZ2B). Conditions: AlphaScreen BAZ2B-H3K14Ac peptide displacement; activity change, negative = inhibition: at 114 µM (top of the series).
Method in brief: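 In this displacement format the biotinylated H3(5-23) peptide acetylated at Lys14 serves as ligand at 50 nM, with BAZ2B at 50 nM in PBS pH 7.4 containing 0.01% Tween-20. Donor and acceptor beads are 10 ug/mL final.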
% is scaled to controls: 0 for no effect and ±100 for the full control effect; potency is read from the fitted curve at half-maximal effect; tags tell the direction and shape of the fitted curve.
Also: nearly all actives have a fitted effect of over 60% in size.

Chain of UniProt Q9UIF8 (Q9UIF8 whole entry, looked up, the tested form may be a part): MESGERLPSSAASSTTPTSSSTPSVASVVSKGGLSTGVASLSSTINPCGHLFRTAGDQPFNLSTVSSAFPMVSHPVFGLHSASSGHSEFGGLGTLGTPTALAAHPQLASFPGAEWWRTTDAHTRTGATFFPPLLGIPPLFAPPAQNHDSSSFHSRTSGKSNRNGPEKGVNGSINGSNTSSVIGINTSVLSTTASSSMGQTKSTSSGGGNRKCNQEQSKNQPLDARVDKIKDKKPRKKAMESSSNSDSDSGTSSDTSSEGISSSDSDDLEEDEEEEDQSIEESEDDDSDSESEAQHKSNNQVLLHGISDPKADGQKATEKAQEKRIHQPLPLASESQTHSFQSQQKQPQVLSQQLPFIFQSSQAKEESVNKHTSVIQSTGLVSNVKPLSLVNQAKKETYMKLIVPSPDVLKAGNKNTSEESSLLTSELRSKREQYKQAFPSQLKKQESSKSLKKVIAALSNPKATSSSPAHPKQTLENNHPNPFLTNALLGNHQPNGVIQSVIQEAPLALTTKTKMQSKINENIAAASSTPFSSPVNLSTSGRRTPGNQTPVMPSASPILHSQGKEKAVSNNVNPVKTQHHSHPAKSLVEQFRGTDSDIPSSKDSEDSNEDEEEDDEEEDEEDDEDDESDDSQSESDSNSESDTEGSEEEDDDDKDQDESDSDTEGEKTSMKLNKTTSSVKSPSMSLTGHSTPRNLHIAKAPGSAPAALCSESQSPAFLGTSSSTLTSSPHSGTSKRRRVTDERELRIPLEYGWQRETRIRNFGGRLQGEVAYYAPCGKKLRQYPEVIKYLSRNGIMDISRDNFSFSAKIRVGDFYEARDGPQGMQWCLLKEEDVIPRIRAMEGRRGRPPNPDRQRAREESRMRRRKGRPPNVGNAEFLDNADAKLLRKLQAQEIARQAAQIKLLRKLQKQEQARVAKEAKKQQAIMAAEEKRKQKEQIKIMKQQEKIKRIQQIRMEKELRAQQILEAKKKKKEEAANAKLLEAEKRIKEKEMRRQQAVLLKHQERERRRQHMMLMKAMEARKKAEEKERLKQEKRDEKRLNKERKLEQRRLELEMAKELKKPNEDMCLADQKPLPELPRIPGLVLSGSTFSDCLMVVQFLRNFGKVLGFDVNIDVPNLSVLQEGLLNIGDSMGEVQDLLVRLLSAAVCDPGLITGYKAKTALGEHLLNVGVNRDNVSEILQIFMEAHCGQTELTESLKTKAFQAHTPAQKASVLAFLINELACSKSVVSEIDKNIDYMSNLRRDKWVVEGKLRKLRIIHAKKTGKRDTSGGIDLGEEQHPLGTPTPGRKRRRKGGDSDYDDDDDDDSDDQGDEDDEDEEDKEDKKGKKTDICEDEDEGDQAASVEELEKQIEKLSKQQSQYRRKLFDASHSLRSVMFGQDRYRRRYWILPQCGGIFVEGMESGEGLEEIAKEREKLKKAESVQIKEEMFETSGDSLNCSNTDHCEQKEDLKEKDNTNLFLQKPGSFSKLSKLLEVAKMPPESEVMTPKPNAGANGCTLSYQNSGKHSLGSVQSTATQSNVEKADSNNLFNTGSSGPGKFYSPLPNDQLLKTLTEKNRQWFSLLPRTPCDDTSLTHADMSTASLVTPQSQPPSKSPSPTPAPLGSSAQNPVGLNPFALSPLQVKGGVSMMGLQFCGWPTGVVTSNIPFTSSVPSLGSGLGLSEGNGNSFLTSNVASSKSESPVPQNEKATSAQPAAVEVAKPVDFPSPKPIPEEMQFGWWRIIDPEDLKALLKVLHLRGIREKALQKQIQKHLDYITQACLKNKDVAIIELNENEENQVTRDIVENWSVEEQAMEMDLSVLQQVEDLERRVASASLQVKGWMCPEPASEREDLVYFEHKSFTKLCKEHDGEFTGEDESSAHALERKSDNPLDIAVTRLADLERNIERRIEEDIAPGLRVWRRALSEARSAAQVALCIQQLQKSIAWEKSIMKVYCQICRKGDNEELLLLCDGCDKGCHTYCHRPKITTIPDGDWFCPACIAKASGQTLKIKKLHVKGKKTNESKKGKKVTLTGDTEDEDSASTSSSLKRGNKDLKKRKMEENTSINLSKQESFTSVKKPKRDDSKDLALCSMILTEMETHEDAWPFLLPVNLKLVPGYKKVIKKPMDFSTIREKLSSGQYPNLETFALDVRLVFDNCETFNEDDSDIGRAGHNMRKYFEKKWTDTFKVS

Structure (SMILES) | Potency | activity change, negative = inhibition
Cc1cccc(C(=O)NC(=S)Nc2cccc3nc(C)ccc23)c1 | inconclusive: 44.7 µM [inhibitor, partial curve] | 
COc1ccc(C(=O)NC(=S)Nc2ccccc2N2CCCCC2)cc1[N+](=O)[O-] | inconclusive: 50.1 µM [inhibitor, partial curve] | 
Cc1nc(NC(C)c2ccccc2)c2oc3ccccc3c2n1 (centres undefined) | inconclusive: 100 µM [inhibitor, single point] | 
COc1cccc(/C=C/C(=O)c2ccc[nH]2)c1 | inconclusive: 89.1 µM [inhibitor, single point] | 
Clc1cc(Br)ccc1OCCN1CCOCC1 | inconclusive: 89.1 µM [inhibitor, single point] | 
COc1ccc(OC)c(N=c2oc3cc(O)ccc3cc2C(N)=O)c1 | inconclusive: 89.1 µM [inhibitor, partial curve] | 
COc1ccc(C)cc1NC(=S)N1CCN(c2ncccn2)CC1 | inconclusive: 89.1 µM [inhibitor, single point] | 
COc1ccccc1NCC(=O)N/N=C/C=C/c1ccccc1 | inconclusive: 44.7 µM [inhibitor, partial curve] | 
CCOc1ccc(Sc2cc(C(=O)NCc3ccccc3Cl)c3ccccc3n2)cc1 |  | inactive: 2.66%
CC(C)Oc1cccc(C(=O)C2CCCN(Cc3cccn3-c3ccccn3)C2)c1 (centres undefined) | inconclusive: 70.8 µM [inhibitor, partial curve] | 
Nc1c(N2CCCCC2)c2ccccc2oc1=O | inconclusive: 70.8 µM [inhibitor, single point] | 
Cc1nnc(SCC(=O)Nc2ccc(N(C)C)cc2)[nH]c1=O | inconclusive: 12.6 µM [inhibitor, partial curve, poor fit] | 
CCOc1ccc(CNC(=O)C2CCN(C(=O)N3CC(CC)Oc4ccc(C)cc43)CC2)cc1OC (centres undefined) |  | inactive: 0.121%
COc1ccc(OC)c2c(C)cc(N3CCCCCC3)nc12 | inconclusive: 70.8 µM [inhibitor, single point] | 
CCN(CC)c1ccc(/C=N/NC(=O)Cc2cccs2)cc1 | inconclusive: 70.8 µM [inhibitor, partial curve] | 
C=CCn1c(SCc2cccc(OC)c2)nnc1-c1ccncc1 | inconclusive: 70.8 µM [inhibitor, single point] | 
COC(=O)c1c(-c2cccs2)csc1NC(=O)c1ccc(C)cc1 | inconclusive: 89.1 µM [inhibitor, single point] | 
O=C(Cn1c(-c2cccs2)cc2ccccc21)N1CCN(c2ccc(F)cc2)CC1 |  | inactive: -11.1%
O=S(=O)(c1ccc(Cl)cc1)N1CCN(c2ccccn2)CC1 | inconclusive: 89.1 µM [inhibitor, single point] | 
